In article PMC5026359:
Results are given in words; binding and its absence hold for the method and conditions named. For some assays here: In cells and extracts the contact can be indirect. Some results given as binding are weak or reduced against the parent protein; the word gives no strength.

Chains of the proteins cited; added tags and fusions are not shown. Lines headed by an entry give the natural chain unless they say otherwise; changes in a name come on top. A line that says so, or that is headed by a name, gives the form on record, which may keep a tag or linker. Residues count along the entry.
UniProt Q60749: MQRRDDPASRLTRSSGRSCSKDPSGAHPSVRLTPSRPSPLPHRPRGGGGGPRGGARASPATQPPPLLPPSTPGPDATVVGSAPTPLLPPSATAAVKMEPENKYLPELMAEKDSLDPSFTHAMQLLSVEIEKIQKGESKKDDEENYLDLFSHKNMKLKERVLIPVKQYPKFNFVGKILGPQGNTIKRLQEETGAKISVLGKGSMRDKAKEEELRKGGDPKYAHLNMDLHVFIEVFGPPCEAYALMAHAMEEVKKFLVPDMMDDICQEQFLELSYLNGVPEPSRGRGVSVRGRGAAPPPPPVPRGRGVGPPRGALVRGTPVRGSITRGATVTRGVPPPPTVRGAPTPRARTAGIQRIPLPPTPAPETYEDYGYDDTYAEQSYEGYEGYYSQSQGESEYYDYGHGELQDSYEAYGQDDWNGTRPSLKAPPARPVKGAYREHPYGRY
UniProt Q07666: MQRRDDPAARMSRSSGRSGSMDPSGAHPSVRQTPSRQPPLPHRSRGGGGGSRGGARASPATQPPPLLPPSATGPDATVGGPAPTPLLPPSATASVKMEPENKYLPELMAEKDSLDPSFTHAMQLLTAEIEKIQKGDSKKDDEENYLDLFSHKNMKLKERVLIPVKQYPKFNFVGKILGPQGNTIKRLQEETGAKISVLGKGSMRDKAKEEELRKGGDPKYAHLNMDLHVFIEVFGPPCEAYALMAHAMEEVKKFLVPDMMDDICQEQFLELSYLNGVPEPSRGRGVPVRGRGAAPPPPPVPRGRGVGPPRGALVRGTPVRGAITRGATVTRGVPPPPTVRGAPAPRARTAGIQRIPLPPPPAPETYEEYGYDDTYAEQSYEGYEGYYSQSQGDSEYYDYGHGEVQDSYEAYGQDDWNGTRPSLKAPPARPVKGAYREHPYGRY
GFP-Sam68 (ΔC), lacks residues 347–443: residues 1-346 of Q07666
GFP-Sam68 (ΔKH), lacks residues 165–224 (Q07666, form named): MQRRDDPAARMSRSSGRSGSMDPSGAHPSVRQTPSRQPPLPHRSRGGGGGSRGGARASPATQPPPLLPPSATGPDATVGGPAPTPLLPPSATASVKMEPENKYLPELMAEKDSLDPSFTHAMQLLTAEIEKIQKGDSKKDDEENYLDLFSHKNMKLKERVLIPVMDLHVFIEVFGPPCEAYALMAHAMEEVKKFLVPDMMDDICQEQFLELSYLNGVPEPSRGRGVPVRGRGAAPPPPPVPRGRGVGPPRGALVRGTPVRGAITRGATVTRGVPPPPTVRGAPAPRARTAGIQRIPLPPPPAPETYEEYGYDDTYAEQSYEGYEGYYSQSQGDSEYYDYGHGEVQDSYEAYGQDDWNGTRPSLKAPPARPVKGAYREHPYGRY
UniProt P11103: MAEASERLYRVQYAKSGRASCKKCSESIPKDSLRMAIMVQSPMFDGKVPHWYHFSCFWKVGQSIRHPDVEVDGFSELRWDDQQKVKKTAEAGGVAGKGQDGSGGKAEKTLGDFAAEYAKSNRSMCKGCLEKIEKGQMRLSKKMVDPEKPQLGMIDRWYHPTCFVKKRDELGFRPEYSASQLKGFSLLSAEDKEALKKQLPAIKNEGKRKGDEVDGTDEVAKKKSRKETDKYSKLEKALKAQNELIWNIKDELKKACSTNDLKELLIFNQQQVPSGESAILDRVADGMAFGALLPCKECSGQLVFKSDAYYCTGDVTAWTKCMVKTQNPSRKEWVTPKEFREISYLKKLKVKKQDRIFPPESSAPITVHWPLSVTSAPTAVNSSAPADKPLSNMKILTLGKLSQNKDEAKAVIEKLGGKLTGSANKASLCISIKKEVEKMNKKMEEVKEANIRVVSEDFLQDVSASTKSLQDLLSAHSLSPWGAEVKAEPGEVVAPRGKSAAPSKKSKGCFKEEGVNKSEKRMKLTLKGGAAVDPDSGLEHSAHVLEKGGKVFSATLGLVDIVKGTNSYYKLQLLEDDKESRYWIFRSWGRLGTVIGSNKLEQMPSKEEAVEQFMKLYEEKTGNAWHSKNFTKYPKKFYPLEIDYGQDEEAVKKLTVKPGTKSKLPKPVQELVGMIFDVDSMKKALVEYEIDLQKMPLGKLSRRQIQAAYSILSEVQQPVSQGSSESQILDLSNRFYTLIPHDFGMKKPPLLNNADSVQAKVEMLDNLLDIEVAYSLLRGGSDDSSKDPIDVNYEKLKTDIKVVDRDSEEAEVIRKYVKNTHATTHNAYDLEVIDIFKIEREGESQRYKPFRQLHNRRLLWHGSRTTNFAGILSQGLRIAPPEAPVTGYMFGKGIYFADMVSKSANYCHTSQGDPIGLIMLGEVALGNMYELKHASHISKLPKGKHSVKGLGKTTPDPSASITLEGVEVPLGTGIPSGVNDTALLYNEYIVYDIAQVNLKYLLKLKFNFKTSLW
UniProt P09874: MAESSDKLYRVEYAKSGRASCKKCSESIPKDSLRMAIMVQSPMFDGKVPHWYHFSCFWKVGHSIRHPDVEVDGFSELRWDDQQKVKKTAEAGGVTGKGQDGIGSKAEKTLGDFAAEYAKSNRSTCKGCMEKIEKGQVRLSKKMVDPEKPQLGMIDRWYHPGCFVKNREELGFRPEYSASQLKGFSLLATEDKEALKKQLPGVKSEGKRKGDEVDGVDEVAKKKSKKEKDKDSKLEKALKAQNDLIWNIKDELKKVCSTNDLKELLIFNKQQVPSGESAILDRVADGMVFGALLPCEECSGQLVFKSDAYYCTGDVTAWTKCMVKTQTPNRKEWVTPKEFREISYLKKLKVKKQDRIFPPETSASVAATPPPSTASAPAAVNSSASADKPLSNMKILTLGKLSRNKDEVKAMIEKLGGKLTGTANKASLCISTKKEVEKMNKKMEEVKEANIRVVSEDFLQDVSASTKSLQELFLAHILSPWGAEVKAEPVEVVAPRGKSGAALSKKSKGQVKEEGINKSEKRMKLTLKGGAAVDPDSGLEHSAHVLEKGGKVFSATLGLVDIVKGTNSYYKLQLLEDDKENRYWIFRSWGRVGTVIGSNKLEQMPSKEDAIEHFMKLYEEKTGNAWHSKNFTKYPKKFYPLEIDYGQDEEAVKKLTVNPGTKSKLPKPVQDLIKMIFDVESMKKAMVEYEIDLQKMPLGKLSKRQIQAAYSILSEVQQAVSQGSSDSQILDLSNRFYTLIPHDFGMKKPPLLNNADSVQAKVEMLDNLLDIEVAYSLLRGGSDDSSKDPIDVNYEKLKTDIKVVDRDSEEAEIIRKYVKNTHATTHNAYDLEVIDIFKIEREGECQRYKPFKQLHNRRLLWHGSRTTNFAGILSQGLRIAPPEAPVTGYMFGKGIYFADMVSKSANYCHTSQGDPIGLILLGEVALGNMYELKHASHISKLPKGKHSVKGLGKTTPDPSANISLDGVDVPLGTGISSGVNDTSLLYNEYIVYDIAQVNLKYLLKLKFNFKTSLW
UniProt Q62388: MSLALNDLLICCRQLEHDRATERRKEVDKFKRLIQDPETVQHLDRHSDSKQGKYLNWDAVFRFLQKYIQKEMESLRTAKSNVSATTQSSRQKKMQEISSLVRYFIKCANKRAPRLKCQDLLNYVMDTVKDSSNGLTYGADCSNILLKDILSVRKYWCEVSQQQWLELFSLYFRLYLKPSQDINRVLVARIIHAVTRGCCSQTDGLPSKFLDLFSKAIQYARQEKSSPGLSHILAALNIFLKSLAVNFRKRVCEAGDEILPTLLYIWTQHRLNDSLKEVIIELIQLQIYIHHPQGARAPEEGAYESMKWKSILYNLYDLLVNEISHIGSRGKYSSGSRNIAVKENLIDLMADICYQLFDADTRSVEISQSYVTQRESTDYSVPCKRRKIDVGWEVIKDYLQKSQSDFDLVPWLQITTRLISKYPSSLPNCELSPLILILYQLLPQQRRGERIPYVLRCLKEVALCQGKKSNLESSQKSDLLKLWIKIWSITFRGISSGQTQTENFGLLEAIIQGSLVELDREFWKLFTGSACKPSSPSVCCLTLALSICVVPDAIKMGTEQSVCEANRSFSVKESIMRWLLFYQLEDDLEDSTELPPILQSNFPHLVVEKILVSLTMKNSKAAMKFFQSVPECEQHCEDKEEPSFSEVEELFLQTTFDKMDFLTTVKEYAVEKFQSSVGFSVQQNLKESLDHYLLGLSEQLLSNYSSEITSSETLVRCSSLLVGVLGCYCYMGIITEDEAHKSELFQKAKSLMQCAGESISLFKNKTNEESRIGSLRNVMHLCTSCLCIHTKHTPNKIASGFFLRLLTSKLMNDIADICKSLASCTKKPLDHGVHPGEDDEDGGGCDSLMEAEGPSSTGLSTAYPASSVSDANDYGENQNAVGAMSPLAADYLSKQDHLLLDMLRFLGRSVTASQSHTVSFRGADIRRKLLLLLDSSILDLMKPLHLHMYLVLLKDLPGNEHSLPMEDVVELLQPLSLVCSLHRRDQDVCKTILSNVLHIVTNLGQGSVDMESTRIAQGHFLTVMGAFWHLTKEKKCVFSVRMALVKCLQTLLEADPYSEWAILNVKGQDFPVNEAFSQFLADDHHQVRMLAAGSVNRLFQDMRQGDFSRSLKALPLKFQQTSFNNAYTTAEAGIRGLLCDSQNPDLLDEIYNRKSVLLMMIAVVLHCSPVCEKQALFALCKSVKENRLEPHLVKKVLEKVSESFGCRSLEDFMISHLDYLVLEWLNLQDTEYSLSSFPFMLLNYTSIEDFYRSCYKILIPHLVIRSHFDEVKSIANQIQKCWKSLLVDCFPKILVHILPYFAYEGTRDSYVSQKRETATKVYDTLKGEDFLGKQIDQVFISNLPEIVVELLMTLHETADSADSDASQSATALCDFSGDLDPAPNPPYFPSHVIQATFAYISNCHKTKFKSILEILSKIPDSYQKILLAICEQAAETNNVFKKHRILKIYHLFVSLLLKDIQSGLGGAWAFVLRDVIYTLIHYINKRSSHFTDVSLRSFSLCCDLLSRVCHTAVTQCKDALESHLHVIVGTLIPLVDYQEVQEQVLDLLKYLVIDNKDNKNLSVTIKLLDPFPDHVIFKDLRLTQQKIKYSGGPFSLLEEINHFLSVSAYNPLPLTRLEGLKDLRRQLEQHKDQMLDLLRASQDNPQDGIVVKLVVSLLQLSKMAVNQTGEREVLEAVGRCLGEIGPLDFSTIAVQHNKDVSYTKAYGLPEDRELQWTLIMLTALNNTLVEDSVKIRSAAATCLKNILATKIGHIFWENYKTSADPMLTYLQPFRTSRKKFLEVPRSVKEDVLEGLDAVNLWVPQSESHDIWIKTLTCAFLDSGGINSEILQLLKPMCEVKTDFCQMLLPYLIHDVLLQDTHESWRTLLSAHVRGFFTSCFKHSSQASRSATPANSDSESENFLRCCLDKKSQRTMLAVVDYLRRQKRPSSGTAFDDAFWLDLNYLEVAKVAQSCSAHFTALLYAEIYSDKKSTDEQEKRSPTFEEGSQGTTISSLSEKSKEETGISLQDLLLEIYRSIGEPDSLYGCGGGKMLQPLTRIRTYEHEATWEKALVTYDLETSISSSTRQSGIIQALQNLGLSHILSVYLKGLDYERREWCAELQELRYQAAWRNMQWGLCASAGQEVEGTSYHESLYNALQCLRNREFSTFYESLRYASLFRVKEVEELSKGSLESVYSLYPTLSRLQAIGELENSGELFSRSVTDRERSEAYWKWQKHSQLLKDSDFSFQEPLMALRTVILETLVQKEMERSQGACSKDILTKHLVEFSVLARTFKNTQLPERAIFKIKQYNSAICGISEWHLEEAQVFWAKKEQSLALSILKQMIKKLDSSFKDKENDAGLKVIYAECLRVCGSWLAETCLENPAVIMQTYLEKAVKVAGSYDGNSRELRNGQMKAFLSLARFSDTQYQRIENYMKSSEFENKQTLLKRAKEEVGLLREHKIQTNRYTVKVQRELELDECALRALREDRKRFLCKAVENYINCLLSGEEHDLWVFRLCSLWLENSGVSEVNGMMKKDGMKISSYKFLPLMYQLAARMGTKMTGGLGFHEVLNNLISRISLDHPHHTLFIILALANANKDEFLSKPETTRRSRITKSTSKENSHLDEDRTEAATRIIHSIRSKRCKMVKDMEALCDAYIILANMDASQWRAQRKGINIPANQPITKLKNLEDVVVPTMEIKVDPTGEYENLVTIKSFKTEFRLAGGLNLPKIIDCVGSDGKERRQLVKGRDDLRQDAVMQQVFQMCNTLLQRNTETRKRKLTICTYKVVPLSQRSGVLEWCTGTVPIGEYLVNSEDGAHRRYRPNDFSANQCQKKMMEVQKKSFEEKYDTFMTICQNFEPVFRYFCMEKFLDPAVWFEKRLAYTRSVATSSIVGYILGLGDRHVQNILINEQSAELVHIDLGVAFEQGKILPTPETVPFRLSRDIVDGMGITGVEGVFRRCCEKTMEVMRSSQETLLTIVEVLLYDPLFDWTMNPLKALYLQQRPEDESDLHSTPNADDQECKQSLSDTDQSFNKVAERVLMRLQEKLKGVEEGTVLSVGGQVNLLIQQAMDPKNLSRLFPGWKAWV

What was measured:
[1] = target: Src-associated substrate during mitosis of 68 kDa (Sam68), endogenous in mouse embryonic fibroblasts (mouse (endogenous in MEFs)) (UniProt Q60749); assay: co-IP; endogenous proteins; WT (and Sam68 KO control) MEFs γ-irradiated at 10 Gy, whole cell lysates at time points post irradiation, IP with Sam68 antibody and protein G-agarose, immunoblot; lysis buffer 50 mM Tris-HCl pH 8.0, 150 mM NaCl, 1% NP-40, 0.5% sodium deoxycholate, 4°C; also with PJ-34 (20 μM, 1 h) pretreatment and with ethidium bromide (50 μg/ml) in the lysis buffer
[2] = target: GST-fused full-length Sam68 (UniProt Q07666); assay: pull-down; GST pulldown: 1 μg of GST/Ni2+ affinity-purified recombinant protein applied to glutathione Sepharose 4B, 1 h at 4°C, washed, eluted, immunoblot; both purified
[3] = target: poly(ADP-ribose) polymerase 1 (PARP1), endogenous in mouse embryonic fibroblasts (mouse (endogenous in MEFs)) (UniProt P11103); assay: co-IP; endogenous proteins; WT MEFs γ-irradiated at 10 Gy, whole cell lysates at time points post irradiation, IP with PARP1 or isotype control antibody, immunoblot
[4] = target: GFP-Sam68 (ΔC), lacks residues 347–443 (UniProt Q07666); assay: co-IP; whole cell lysates of HEK293T cells expressing GFP or GFP-Sam68 fusion proteins, IP with GFP antibody, immunoblot for endogenous PARP1
[5] = target: GFP-Sam68 (ΔKH), lacks residues 165–224 (UniProt Q07666); assay: as above
[6] = target: GFP-tagged full-length Sam68 (residues 1–443) (UniProt Q07666); assay: as above

Row | binding [1] | Molecule | further results
1 | no binding | PARP5b, endogenous in mouse embryonic fibroblasts (enzyme, UniProt Q3UES3 1-1166) MSGRRCAGGGAACASAGAEAVEPSARELFEACRNGDVERVKRLVTPEKVNSRDTAGRKSTPLHFAAGFGRKDVVEYLLQNGANVQARDDGGLIPLHNACSFGHAEVVNLLLQHGADPNARDNWNYTPLHEAAIKGKIDVCIVLLQHGAEPTIRNTDGRTALDLADPSAKAVLTGDYKKDELLESARSGNEEKMMALLTPLNVNCHASDGRKSTPLHLAAGYNRVKIVQLLLHHGADVHAKDKGDLVPLHNACSYGHYEVTELLVKHGACVNAMDLWQFTPLHEAASKNRIEVCSLLLSYGADPTLLNCHNKSAIDLAPTAQLKERLSYEFKGHSLLQAAREADVTRIKKHLSLEMVNFKHPQTHETALHCAAASPYPKRKQICELLLRKGANTNEKTKEFLTPLHVASENAHNDVVEVVVKHEAKVNALDSLGQTSLHRAAHCGHLQTCRLLLSYGCDPNIISLQGFTALQMGNENVQQLLQEGASLGHSEADRQLLEAAKAGDVETVKKLCTVQSVNCRDIEGRQSTPLHFAAGYNRVSVVEYLLQHGADVHAKDKGGLVPLHNACSYGHYEVAELLVKHGAVVNVADLWKFTPLHEAAAKGKYEICKLLLQHGADPTKKNRDGNTPLDLVKDGDTDIQDLLRGDAALLDAAKKGCLARVKKLSSPDNVNCRDTQGRHSTPLHLAAGYNNLEVAEYLLQHGADVNAQDKGGLIPLHNAASYGHVDVAALLIKYNACVNATDKWAFTPLHEAAQKGRTQLCALLLAHGADPTLKNQEGQTPLDLVSADDVSALLTAAMPPSALPTCYKPQVLSGVRGPGATADALSSGPSSPSSLSAASSLDNLSGSFSELSAVVSSSAAEGATGLQRKEDSGIDFSITQFIRNLGLEHLMDIFEREQITLDVLVEMGHKELKEIGINAYGHRHKLIKGVERLISGQQGLNPYLTLNNSGSGTILIDLSPDDKEFQSVEEEMQSTVREHRDGGHAGGVFNRYNILKIQKVCNKKLWERYTHRRKEVSEENHNHANERMLFHGSPFVNAIIHKGFDERHAYIGGMFGAGIYFAENSSKSNQYVYGIGGGTGCPIHKDRSCYICHRQLLFCRVTLGKSFLQFSAMKMAHSPPGHHSVTGRPSVNGLALAEYVIYRGEQAYPEYLITYQIVRPEGMVDG | 
2 | no binding | PARP5a, endogenous in mouse embryonic fibroblasts (enzyme, UniProt Q6PFX9 1-1320) MAASRRSQHHHHHHQQQLQPAPGASAPPPPPPPPLSPGLAPGPTPASPTAGGLAPFASPRHGLALPEGDGSRDPPDRPRSPDPVDGAVCTVAAPAAVPAASAAVGVAPTPAGGGGGGGNNSASSASSPTSSSSSSPSSPGSSLAESPEAAGVGSTATLGAGAAGLGPGVPAVSGALRELLEACRNGDVSRVKRLVDAANVNAKDMAGRKSSPLHFAAGFGRKDVVEHLLQMGANVHARDDGGLIPLHNACSFGHAEVVSLLLCQGADPNARDNWNYTPLHEAAIKGKIDVCIVLLQHGADPNIRNTDGKSALDLADPSAKAVLTGEYKKDELLEAARSGNEEKLMALLTPLNVNCHASDGRKSTPLHLAAGYNRVRIVQLLLQHGADVHAKDKGGLVPLHNACSYGHYEVTELLLKHGACVNAMDLWQFTPLHEAASKNRVEVCSLLLSHGADPTLVNCHGKSAVDMAPTPELRERLTYEFKGHSLLQAAREADLAKVKKTLALEIINFKQPQSHETALHCAVASLHPKRKQVAELLLRKGANVNEKNKDFMTPLHVAAERAHNDVMEVLHKHGAKMNALDSLGQTALHRAALAGHLQTCRLLLSYGSDPSIISLQGFTAAQMGNEAVQQILSESTPMRTSDVDYRLLEASKAGDLETVKQLCSPQNVNCRDLEGRHSTPLHFAAGYNRVSVVEYLLHHGADVHAKDKGGLVPLHNACSYGHYEVAELLVRHGASVNVADLWKFTPLHEAAAKGKYEICKLLLKHGADPTKKNRDGNTPLDLVKEGDTDIQDLLRGDAALLDAAKKGCLARVQKLCTPENINCRDTQGRNSTPLHLAAGYNNLEVAEYLLEHGADVNAQDKGGLIPLHNAASYGHVDIAALLIKYNTCVNATDKWAFTPLHEAAQKGRTQLCALLLAHGADPTMKNQEGQTPLDLATADDIRALLIDAMPPEALPTCFKPQATVVSASLISPASTPSCLSAASSIDNLTGPLTDLAVGGASNAGDGAAGAERKEGEVAGLDMNISQFLKSLGLEHLRDIFETEQITLDVLADMGHEELKEIGINAYGHRHKLIKGVERLLGGQQGTNPYLTFHCVNQGTILLDLAPEDKEYQSVEEEMQSTIREHRDGGNAGGIFNRYNVIRIQKVVNKKLRERFCHRQKEVSEENHNHHNERMLFHGSPFINAIIHKGFDERHAYIGGMFGAGIYFAENSSKSNQYVYGIGGGTGCPTHKDRSCYICHRQMLFCRVTLGKSFLQFSTMKMAHAPPGHHSVIGRPSVNGLAYAEYVIYRGEQAYPEYLITYQIMKPEAPSQTATAAEQKT | 

The next lines start with the molecule.

Row | Molecule | binding [1] | further results
3 | PARP2, endogenous in mouse embryonic fibroblasts (from UniProt O88554 1-559) (enzyme) | no binding | 
4 | poly(ADP-ribose) polymerase 1 (PARP1), endogenous in mouse embryonic fibroblasts (from UniProt P11103 1-1013) (enzyme) | binds | 
5 | His-PARP1 recombinant protein (from UniProt P09874 1-1014) (enzyme) |  | binding [2]: binds
6 | Src-associated substrate during mitosis of 68 kDa (Sam68), endogenous in mouse embryonic fibroblasts (from UniProt Q60749 1-443) |  | binding [3]: binds
7 | endogenous PARP1 of HEK293T cells (from UniProt P09874 1-1014) (enzyme) |  | binding [4]: binds; binding [5]: binds; binding [6]: binds
8 | ataxia telangiectasia mutated (ATM), endogenous in mouse embryonic fibroblasts (from UniProt Q62388 1-3066) (enzyme) | binds | 
9 | PARP3, endogenous in mouse embryonic fibroblasts (enzyme, UniProt Q3ULW8 1-533) MAPKRKASVQTEGSKKRRQGTEEEDSFRSTAEALRAAPADNRVIRVDPSCPFSRNPGIQVHEDYDCTLNQTNIGNNNNKFYIIQLLEEGSRFFCWNRWGRVGEVGQSKMNHFTCLEDAKKDFKKKFWEKTKNKWEERDRFVAQPNKYTLIEVQGEAESQEAVVKALSPQVYSGPVRTVVKPCSLDPATQNLITNIFSKEMFKNAMTLMNLDVKKMPLGKLTKQQIARGFEALEALEEAMKNPTGDGQSLEELSSCFYTVIPHNFGRSRPPPINSPDVLQAKKDMLLVLADIELAQTLQAAPGEEEEKVEEVPHPLDRDYQLLRCQLQLLDSGESEYKAIQTYLKQTGNSYRCPDLRHVWKVNREGEGDRFQAHSKLGNRRLLWHGTNVAVVAAILTSGLRIMPHSGGRVGKGIYFASENSKSAGYVTTMHCGGHQVGYMFLGEVALGKEHHITIDDPSLKSPPSGFDSVIARGQTEPDPAQDIELELDGQPVVVPQGPPVQCPSFKSSSFSQSEYLIYKESQCRLRYLLEIHL | no binding | 
